In PubChem BioAssay (Tox21):
Several values for one entry are separate records, joined by “and”; a condition that tells them apart may be missing. Equal values may be shown once. Inconclusive means that the source gave no clear call. Such entries were picked first, then a sample of the others. No potency is given beside an inconclusive call; the fits are too rough. Activity calls are given as the source filed them. Calls come from the whole dose curve; as a rule, active = well fitted activation curve with a large enough effect in the repeat runs; inconclusive = weak or mixed curves; inactive = flat fitted curve, though single readings scatter.
Potency is the fitted concentration of half-maximal effect; tags give direction and shape of the fitted curve.

Experiment: A CellTox Green Cytotoxicity Assay to monitor cytotoxicity in HEK293 cells - 32 hour (AID 1224881); note: nearly all actives have a fitted effect of over 40% in size
Details: CellTox Green fluorescence; series mostly up to 76.8 µM
Method in brief: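 Dead-cell fluorescence measured kinetically: asymmetric cyanine dye, HEK293, 600 cells/well, 5 h settle, 23 nL cpd/DMSO, 37 C, reads 0–40 h every 8 h.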
For `CCCC(c1cc(C(C)(C)C)c(O)cc1C)c1cc(C(C)(C)C)c(O)cc1C`, the Potency was active: 49.6 µM. In the case of `CCCCCCCCOC(=O)c1ccc(O)cc1`, the Potency is reported as active: 43.5 µM and active: 43.6 µM. For `O=C1c2ccccc2C(=O)N1SC1CCCCC1`, the Potency was active: 12.3 µM and active: 24.5 µM. For `CCCCCCCCCCCCCCCCCCNC(=O)OC1CCN(C(=O)OC[C@H](COC(=O)N(Cc2cccc[n+]2CC)C(=O)c2ccccc2OC)OC)CC1`, the Potency was inconclusive [activator, single point]. For `Cc1cc(CCN2CCN(c3nsc4ccccc34)CC2)cc2c1NC(=O)CC2(C)C`, the Potency was active: 49 µM. With `O=C1C=CC(=O)N1c1ccc(Cc2ccc(N3C(=O)C=CC3=O)cc2)cc1` the Potency was active: 19.5 µM. With `O=C(Nc1ccc(Cl)cc1)Nc1ccc(Cl)c(C(F)(F)F)c1` the Potency was inconclusive [activator, partial curve, poor fit]. With `Nc1cc([N+](=O)[O-])ccc1O` the Potency was inconclusive [activator, single point]. In the case of `Oc1ccc(-c2ccccc2)c(Cl)c1`, the Potency is reported as inconclusive [activator, single point]. With `Oc1ccc(Cl)cc1C1CCCC1` the Potency was active: 49 µM. In the case of `C=C(C)C(=O)OCCC[Si](OC)(OC)OC`, the Potency is reported as inconclusive [activator, single point].
